# In ChEMBL document CHEMBL1157539, “Thousands of chemical starting points for antimalarial lead identification” (Nature, 2010):
# Whole data set: some 13,000 compounds, median “IFI” near 4, cut for the highest 2% near 17. The list shows a part of the results.
# Experiment: GSK_TCMDC: Inhibition Frequency Index (IFI). The number of non-kinase HTS assays where a compound showed > 50 % inhibition, expressed as a percentage of the number of such assays in which the compound was tested (-0 is zero)
# Type: functional
row,Compound,IFI [%]
1,Cc1cnc(N)c(/C=C/c2cncc(C(=O)NCCc3ccc(Cl)cc3Cl)c2)c1,5.56
2,C=CCN1C(=O)C(C(C)=O)=C(O)C1c1ccccc1 (configuration not stated),1.52
3,COc1cccc(NC(=O)Nc2cc(-c3ccc4[nH]ncc4c3)cc3c2CNC3=O)c1,-0
4,CN1CCC(OC(=O)c2cc3cc(-c4ccccc4)ccc3n2S(=O)(=O)c2ccccc2)CC1,8.44
5,CCc1cccc(-n2c(=O)c3cccnc3n2CC(=O)NC2CCCC2)c1,1.39
6,CC(O)C1CCCCN1C(=O)c1cccc(-c2ccc(-c3nc4cc(C(F)(F)F)ccc4[nH]3)cc2)c1 (configuration not stated),9.43
7,Cc1cccc2nc(-c3ccc(-c4ccc(CN5CCCCC5)cc4)cc3)[nH]c12,7.04
8,O=c1cc(NC[C@H]2CCC[C@@H]2NC2CCCc3c2[nH]c2ccccc32)[nH]c2ccccc12 (some centres not stated),4.29
9,Cc1cc(N(C)C)nc(Nc2ccc(NC(=O)c3ccccc3F)cc2)n1,5.41
10,CC(C)(C)Cn1cc(-c2ccc(C(=O)NCCc3ccc(S(C)(=O)=O)cc3)cc2)c(N)n1.CC(C)(C)Cn1ncc(-c2ccc(C(=O)NCCc3ccc(S(C)(=O)=O)cc3)cc2)c1N,-0
11,CN1CCN(Cc2cccc(-c3ccc4c(Nc5cc(O)c(Cl)cc5F)ccnc4c3)c2)CC1,4.69
12,c1ccc(-c2n[nH]cc2Nc2ccnc3ccccc23)nc1,8.26
13,Cc1cc(NCC2CCN(CC3CCCCC3)C2)nc(Nc2ccc(Br)cc2)n1 (configuration not stated),3.95
14,O=C(Nc1cccc(-c2ccc(-c3nc4ccccc4[nH]3)cc2)c1)c1ccncc1,10.2
15,CCCC1N=C(N)N=C(N)N1c1cccc([N+](=O)[O-])c1 (configuration not stated),0.73
16,COc1cc2nccc(Nc3ccc(OCc4ccccc4)cc3)c2cc1OC,5.84
17,O=c1cc(NCCC(CNCc2ccoc2)NCc2cc(Br)cc(Br)c2)[nH]c2ccccc12 (configuration not stated),5.19
18,Cc1cc(=NN=Cc2ccc(Cl)cc2)c2cc(C(F)(F)F)ccc2[nH]1,0.77
19,O=C(/C=C/c1ccc(Cl)c(Cl)c1)NCCCCCN1CCCN(C(=O)Nc2ccc(Cl)c(Cl)c2)CC1,7.89
20,CCOc1cccc(C(=O)Nc2cccc(CN3CCCN(Cc4ccc(O)cc4)CC3)c2)c1,1.54
21,Cc1cccc2nc(-c3cccc(-c4ccc(NC(=O)C(C)CN5CCOCC5)cc4)c3)[nH]c12 (configuration not stated),2.78
22,O=C(/C=C/c1ccc(Cl)c(Cl)c1)NCCCCCN1CCC(NC(=O)Nc2cc(Cl)nc(Cl)c2)CC1,1.59

row,Compound,IFI [%]
1,Cc1cc(N2CCN(C)CC2)nc2ccc(NC(=O)Cc3cccc(C(F)(F)F)c3)cc12,4.23
2,COc1cc2nc(Cl)nc(Nc3ccncc3)c2cc1OC,-0
3,CCC(C)NS(=O)(=O)c1ccc2nc(Nc3ccc(C)c(Cl)c3)n(C(C)C(C)C)c2c1 (configuration not stated),5.19
4,Cc1nc(C)c(-c2ccc(Oc3ccc(Cl)cc3)c(Cl)c2)c(O)c1Br,10.7
5,CCC(=O)Nc1nnc(Cc2ccc(OC)c(OC)c2)s1,0.75
6,O=C(Nc1cccc(-c2cccc(-c3nc4cc(F)ccc4[nH]3)c2)c1)Nc1ccc(F)c(F)c1F,10.1
7,CC(C)(CNC(=O)[C@H]1CCCCN1)c1nc(-c2ccc(Cl)c(O)c2)c(-c2ccncc2)[nH]1,-0
8,CCOC(=O)c1ccc(NC(=O)N(Cc2ccc(-c3cccc(CN4CCNCC4)c3)cc2)C2CCN(Cc3ccccc3)CC2)cc1,3.7
9,CC(=O)Nc1ccccc1OCc1cc2cc(C(=O)N3CCC(N4C(=O)OCc5ccccc54)CC3)ccc2o1,8.15
10,O=C(Nc1nc(-c2ccccn2)cs1)c1ccccc1COc1ccccc1,7.06
11,COc1ccc(CNC2Cc3ccccc3C2)cc1-c1cccc(S(=O)(=O)NCCN2CCCC2)c1,13.5
12,COc1cc(CCNc2nc(NCc3ccccc3-c3ccccc3)nc(N3CCC(N)CC3)n2)ccc1O,7.58
13,CC(C)CNCc1ccc(-c2ccc(CN(CCCN3CCN(C)CC3)C(=O)CCC3CCCC3)cc2)cc1,8.16
14,CCCN1CCN(c2ccccc2NS(=O)(=O)c2ccc(C(=O)Nc3ccc(Cl)cc3)cc2)CC1,3.36
15,CCNc1cc(C(=O)N[C@@H](Cc2ccccc2)[C@H](O)CNC(C)(C)Cc2ccccc2)cc(N2CCCC2=O)c1,2.84
16,CC(=O)c1cccc(S(=O)(=O)NCCCNc2nc3cc(C)cc(C)c3cc2C#N)c1,1.49
17,COc1ccc(Nc2nccc(N3CCC(NS(=O)(=O)c4ccc(NC(C)=O)cc4)C3)n2)cc1 (configuration not stated),1.54
18,O=C(c1ccc(-c2cccc(-c3nc4cc(C(F)(F)F)ccc4[nH]3)c2)cc1)N1CCCCC1CN1CCC(O)C1 (configuration not stated),7.08
19,COc1ccc(CCN(C)CCCN2CCC(NC(=O)c3cccc4c(=O)c5ccccc5sc34)CC2)cc1OC,21.9
20,O=C(Nc1cccc(F)c1)c1ccc(C(=O)NC2CCN(CC3CCCCC3)CC2)cc1,2.68
21,CCOc1cc(CC)ccc1C1CCN(CCCCNC(=O)c2ccc(NC(=O)c3ccc(C#N)cc3)cc2)CC1,8.41
22,CCCNCc1ccc(-c2ccc(CNC3Cc4ccccc4C3)cc2)nc1,5.41

row,Compound,IFI [%]
1,Cc1nc(-c2nc(NCc3ccccn3)ncc2-c2ccsc2)sc1C,4.6
2,COc1ccc(O)c(-c2sc(N=C(N)N)nc2-c2ccccc2)c1,8.09
3,Cc1ccc(F)c(CN2CCC(N3CC(c4ccccc4)(c4ccccc4)OC3=O)CC2)c1Cl,2.34
4,CCNc1cc(C(=O)N[C@@H](Cc2ccccc2)[C@H](O)CNC2(C)CCCCC2)cc(N2CCCCS2(=O)=O)c1,1.43
5,CC(C)(C)OC(=O)/C=C(\C(=O)OCc1ccc([N+](=O)[O-])cc1)c1csc(NC(c2ccccc2)(c2ccccc2)c2ccccc2)n1,1.47
6,CC(=O)Nc1ccc(CCNC(C)Cc2ccc(C(=O)Nc3ccc(CC(C)NCCc4cccc(Cl)c4)cc3)cc2)cc1 (configuration not stated),6.2
7,CN1CCCN(Cc2ccc(-c3cccc(NC(=O)c4cccc(C#N)c4)c3)cc2)CC1,5.88
8,Cc1nc(-c2nc(NCCc3c(C)noc3C)ncc2-c2ccsc2)sc1C,2.33
9,Cc1cc(N[C@@H](Cc2ccccc2)C(=O)NC2CCCC2)nc(NCCc2cccs2)n1,4.55
10,CCC1CN2CCc3c([nH]c4ccccc34)[C@@H]2C[C@@H]1CC1NCCc2cc(OC)c(OC)cc21 (some centres not stated),8.33
11,O=S(=O)(Nc1cccc(F)c1CNCc1ccccn1)c1ccc(Cl)c(Cl)c1,11.1
12,COc1cc(Cc2cnc(N)nc2N)cc(OCCn2ccccc2=O)c1OC,0
13,Cc1ccc(NC(=O)c2ccc3ncccc3c2)cc1OC1CCN(Cc2ccc(F)cc2)CC1,4.84
14,O=C(/C=C/c1ccc(Cl)c(Cl)c1)NCCCCCN1CCCN(C(=O)Nc2ccc(Cl)c(C(F)(F)F)c2)CC1,8.61
15,N=C(N)Nc1ccc(OCCCCCOc2ccc(NC(=N)N)c(Cl)c2)cc1Cl,1.48
16,O=C(/C=C/c1ccc(Cl)cc1Cl)N1CCC(CCN2CCC(c3c[nH]c4ccccc34)CC2)CC1,10.3
17,CCOC(=O)c1cnc2c(OC)cc(OC)c(Cl)c2c1Nc1cccc(C)c1C,7.09
18,CO/C(=C\C=C\c1cc2cc(Cl)c(Cl)cc2[nH]1)C(=O)NCCCN1CCN(c2ccc(OC)cc2)CC1,8.53
19,COc1nc2c(N3CCN(CCNCc4ccc5c(n4)NC(=O)CO5)CC3)ccnc2cc1F,1.6
20,COC(=O)c1cc(C(=O)CN(Cc2ccccc2)C(C)C)ccc1O,1.39
21,CC(=NNC(=N)N)c1ccc2c(ccc3ccccc32)c1,7.91
22,CCCCCCN1CCN(Cc2cccc(NC(=O)c3cc4ccccc4o3)c2)CC1,4.83

row,Compound,IFI [%]
1,CNC(=O)c1ccccc1Nc1nc(Nc2cccc(CS(C)(=O)=O)c2)ncc1C,3.85
2,O=C1C(c2ccccc2)=C(Nc2cccc(OC(F)(F)C(F)F)c2)c2ccccc21,0.74
3,Cc1ccc(-c2cnc(N)c3cc(-c4ccnc(N)n4)ccc23)cc1,8.7
4,CS(=O)(=O)c1ccc(-c2cnc(N)c(-c3cccc(CO)c3)c2)cc1,0
5,Cc1[nH]c(C)c(-c2ccc(OCCCCSc3ccncc3)cc2)c(=O)c1Br,1.82
6,Cn1cncc1C(=O)Nc1ccc(-c2ccc(-c3nc4cc(C(F)(F)F)ccc4[nH]3)cc2)cc1,3.57
7,CCOC(=O)NC1=NC(=N)N(OCCCOc2cc(Cl)c(Cl)cc2Cl)C(C)(C)N1,5.76
8,COc1ccc(Nc2ncc3c(-c4ccc(NC(=O)c5cccc(C(F)(F)F)c5)cc4)c[nH]c3n2)cc1OC,4.69
9,O=C(NCc1cccc(F)c1)Nc1ccc(-c2ccc(-c3nc4cc(C(F)(F)F)ccc4[nH]3)cc2)cc1,2.02
10,CCCC(C)Nc1nc(C)cc(N[C@@H](Cc2ccccc2)C(=O)NCCc2ccccc2)n1 (some centres not stated),11.1
11,O=C(NCC1CCN(Cc2ccc3c(c2)OCCO3)C1)c1cc(-c2cccc(C(F)(F)F)c2)cs1 (configuration not stated),8
12,COc1cccc(C(=O)NCc2nnc(S)n2-c2ccc(Cl)c(Cl)c2)c1,1.42
13,Cc1cc(=O)[nH]c(-n2nc(C)cc2NC(=O)C2(c3ccc(Cl)cc3)CCCC2)n1,19.2
14,Cc1nnsc1C(=O)Nc1ccc(-c2ccc(-c3nc4cccc(C)c4[nH]3)s2)cc1,7.14
15,CCN(CC)c1ccc(-c2nc3cc(Cl)cnc3[nH]2)cc1,6
16,CN(C)CCOc1cccc(NC(=O)Nc2ccc(-c3ccccc3)cc2)c1,3.65
17,Cc1cc(C(F)(F)F)n2nc(C(=O)N(Cc3cncn3Cc3ccccc3F)CC3CC3)cc2n1,-0
18,O=C(Nc1ccc(Cl)cc1)c1cccc(S(=O)(=O)NC2CCN(CC3CCCCC3)C2)c1 (configuration not stated),13.9
19,COc1ccc2nccc([C@@H](O)CN3CCC(NC(=O)c4ccc(CN5CCN(c6cccc(C)c6)CC5C)cc4)CC3)c2c1 (some centres not stated),13
20,CCCC(C)NC(=O)[C@H](Cc1ccccc1)NC(=O)c1ccc(O)c(-c2ccc(OC)cc2)c1 (some centres not stated),2.24
21,Cc1cnc(CN(Cc2ccc(-c3ccc(CNCCc4ccc(S(C)(=O)=O)cc4)cn3)cc2)C(=O)c2nn(-c3ccccc3)nc2C)cn1,4.23
